Cytotoxicity call and growth inhibition call data for 29 molecules are collected here from the antibiotic and cytotoxicity screens of Wong et al. (2023).

The list shows a part of the results.

One assay deals with HSkMC. In words: cytotoxicity call (relative viability < 0.9). The note with it: 10 µM.
The subject of a further assay is S. aureus RN4220. In words: growth inhibition call (relative growth <= 0.2). The conditions noted are these: 50 µM.
The test system of the next assay is HepG2. The assay can be described thus: cytotoxicity call (relative viability < 0.9). The note with it: 10 µM.

Take `CCOC(=O)CSc1nc(=O)cn[nH]1`: the cytotoxicity call in the assay with HSkMC is “inactive”. Moreover, in the assay with S. aureus RN4220, the growth inhibition call is “inactive”.

As to `C[C@@H]1CN([C@H](C)CO)S(=O)(=O)c2ccc(C#Cc3ccc(F)cc3)cc2O[C@@H]1CN(C)S(=O)(=O)c1ccc(F)cc1`, the cytotoxicity call in the assay on HSkMC was “inactive”. In the assay with S. aureus RN4220, the growth inhibition call is “inactive”.

For `C[C@@H]1CN([C@H](C)CO)C(=O)c2cccc(NC(=O)CCCCCC(=O)Nc3ccccc3N)c2O[C@@H]1CN(C)Cc1ccc(C(F)(F)F)cc1`, the cytotoxicity call in the assay with HSkMC and in the assay with HepG2 was “inactive” throughout. Further, the growth inhibition call with S. aureus RN4220 was “inactive”.

`C[C@@H]1CCCCO[C@H](CN(C)C(=O)c2ccccc2)[C@@H](C)CN([C@H](C)CO)C(=O)c2cc(NC(=O)Nc3ccc4c(c3)OCO4)ccc2O1`: the cytotoxicity call in the assay on HSkMC and in the assay with HepG2 was “inactive” throughout. For the same molecule, in the assay with S. aureus RN4220, the growth inhibition call was “inactive”.

On to `C[C@H]1CN([C@@H](C)CO)C(=O)c2cc(NC(=O)c3ccncc3)ccc2O[C@@H]1CN(C)Cc1ccc(Oc2ccccc2)cc1`, for which the cytotoxicity call in the assay with HSkMC is “inactive”. In the assay with S. aureus RN4220, the growth inhibition call is “inactive”.

Regarding `Cc1cc(C)n(CCC(=O)O)n1`, the cytotoxicity call in the assay on HSkMC and in the assay on HepG2 was “inactive” each time. The growth inhibition call in the assay with S. aureus RN4220 was “inactive”.

`Cc1noc(C)c1S(=O)(=O)Nc1ccc2c(c1)CC(=O)N([C@H](C)CO)C[C@@H](C)[C@H](CN(C)C(=O)Nc1ccccc1)O2`: the cytotoxicity call with HSkMC was “inactive”. In addition, the growth inhibition call in the assay on S. aureus RN4220 is “inactive”.

Take `COc1ccc(NC(=O)N(C)C[C@H]2Oc3ccc(NS(=O)(=O)c4c(C)noc4C)cc3CC(=O)N([C@H](C)CO)C[C@@H]2C)cc1`: the cytotoxicity call with HSkMC and in the assay with HepG2 was “inactive” each time. Also, the growth inhibition call in the assay on S. aureus RN4220 is “inactive”.

Regarding `CCCN(C)C[C@@H]1OCCCC[C@H](C)Oc2ccc(NC(=O)Nc3ccc(F)cc3)cc2C(=O)N([C@H](C)CO)C[C@@H]1C`, in the assay on HSkMC, the cytotoxicity call is “inactive”. The growth inhibition call with S. aureus RN4220 was “inactive”.

Consider `O=C(C[C@H]1CC[C@@H]2[C@H](COC[C@@H](O)CN2CC2CCOCC2)O1)N1CCOCC1`, for which the cytotoxicity call with HSkMC and in the assay on HepG2 was “inactive” in each case. Also, in the assay with S. aureus RN4220, the growth inhibition call was “inactive”.

Consider `C[C@@H]1CCCCO[C@H](CN(C)C(=O)Nc2ccc(F)cc2)[C@H](C)CN([C@@H](C)CO)C(=O)c2cc(NC(=O)C3CCCCC3)ccc2O1`, for which, in the assay on HSkMC, the cytotoxicity call is “inactive”. In addition, the growth inhibition call with S. aureus RN4220 was “inactive”.

Take `CN1CCN(C(=O)C[C@H]2CC[C@@H]3[C@@H](COc4ccc(NC(=O)c5cscn5)cc4C(=O)N3C)O2)CC1`: in the assay with HSkMC, the cytotoxicity call was “inactive”. In addition, the growth inhibition call in the assay with S. aureus RN4220 is “inactive”.

On to `COCC(=O)Nc1ccc2c(c1)OC[C@H](C)N(Cc1ccccc1F)C[C@@H](C)[C@@H](OC)CN(C)C2=O`, for which the cytotoxicity call with HSkMC and with HepG2 was “inactive” in each case. For the same molecule, the growth inhibition call in the assay on S. aureus RN4220 is “inactive”.

For `C[C@H]1CN([C@@H](C)CO)C(=O)c2cccc(N(C)C)c2O[C@H]1CN(C)S(C)(=O)=O`, the cytotoxicity call in the assay with HSkMC and in the assay on HepG2 was “inactive” each time. The growth inhibition call in the assay on S. aureus RN4220 is “inactive”.

For the molecule `Cc1ccc(S(=O)(=O)N2C[C@H](O)COC[C@@H]3O[C@@H](CC(=O)NCc4ccc5c(c4)OCO5)CC[C@H]32)cc1`, the cytotoxicity call in the assay on HSkMC is “inactive”. Moreover, the growth inhibition call with S. aureus RN4220 was “inactive”.

As for `C[C@@H]1CN([C@@H](C)CO)C(=O)c2cc(NC(=O)Nc3ccccc3)ccc2O[C@H]1CN(C)Cc1ccc(C(F)(F)F)cc1`, the cytotoxicity call with HSkMC was “active”. In addition, in the assay on S. aureus RN4220, the growth inhibition call was “inactive”.

`COc1ccc(cc1)CN1C[C@]2(CN(C2)S(=O)(=O)c2cn(cn2)C)c2c([nH]c3cc(ccc23)OC)[C@@H]1CO`: the cytotoxicity call with HSkMC and in the assay with HepG2 was “inactive” in each case. In the assay with S. aureus RN4220, the growth inhibition call is “inactive”.

Take `C[C@H](CO)N1C[C@H](C)[C@@H](CN(C)S(=O)(=O)c2ccc3ccccc3c2)OCc2cn(nn2)CCCC1=O`: the cytotoxicity call in the assay with HSkMC and with HepG2 was “inactive” in each case. The growth inhibition call in the assay with S. aureus RN4220 was “inactive”.

For `C[C@@H]1CN([C@H](C)CO)C(=O)c2cccc(NC(=O)C3CCOCC3)c2O[C@H]1CN(C)Cc1ccc2c(c1)OCO2`, the cytotoxicity call with HSkMC and in the assay with HepG2 was “inactive” each time. Besides, the growth inhibition call in the assay on S. aureus RN4220 is “inactive”.

In the case of `C[C@@H]1CN([C@@H](C)CO)C(=O)c2cc(NC(=O)CCCCCC(=O)Nc3ccccc3N)ccc2O[C@H]1CN(C)C(=O)Nc1cccc2ccccc12`, in the assay with HSkMC, the cytotoxicity call is “inactive”. In addition, in the assay with S. aureus RN4220, the growth inhibition call is “inactive”.

For `CCCNC(=O)N1C[C@H](O)COC[C@H]2O[C@@H](CC(=O)N3CCN(C)CC3)CC[C@@H]21`, in the assay on HSkMC, the cytotoxicity call was “inactive”. Also, the growth inhibition call with S. aureus RN4220 is “inactive”.

With `NCC[C@@H]1CC[C@@H](NC(=O)c2ccccc2F)[C@H](CO)O1`, the cytotoxicity call in the assay with HSkMC and with HepG2 was “inactive” in each case. In addition, in the assay with S. aureus RN4220, the growth inhibition call was “inactive”.

As to `CCC(=O)Nc1cccc([C@@H](CCc2ccc(OC)c(OC)c2)OC(=O)[C@@H]2CCCCN2C(=O)C(=O)C(C)(C)CC)c1`, the cytotoxicity call in the assay on HSkMC and with HepG2 was “inactive” each time. Besides, the growth inhibition call with S. aureus RN4220 was “inactive”.

For `Cc1noc(C)c1S(=O)(=O)Nc1cccc2c1O[C@H](CN(C)S(=O)(=O)c1ccc(F)cc1)[C@@H](C)CN([C@H](C)CO)C2=O`, the cytotoxicity call in the assay with HSkMC and in the assay with HepG2 was “inactive” throughout. Moreover, in the assay with S. aureus RN4220, the growth inhibition call was “inactive”.

In the case of `CC(C)(C)OC(=O)C[C@@H]1CC=CC[C@H](CC(=O)N[C@@H](CO)Cc2ccccc2)C(=O)N2CCC[C@H]2COC1=O`, the cytotoxicity call with HSkMC and in the assay on HepG2 was “inactive” each time. Besides, the growth inhibition call in the assay on S. aureus RN4220 is “inactive”.

Turning to `Cc1noc(C)c1NC(=O)Nc1ccc2c(c1)C(=O)N([C@@H](C)CO)C[C@H](C)[C@H](CN(C)Cc1ccc(Cl)c(Cl)c1)OCCCC[C@@H](C)O2`, the cytotoxicity call with HSkMC and with HepG2 was “inactive” in each case. Also, in the assay with S. aureus RN4220, the growth inhibition call is “inactive”.

For `CO[C@@H]1CN(C)C(=O)c2cc(NC(=O)Nc3ccccc3F)ccc2OC[C@H](C)N(Cc2ccccc2C(=O)O)C[C@H]1C`, the cytotoxicity call in the assay on HSkMC is “inactive”. For the same molecule, the growth inhibition call in the assay on S. aureus RN4220 was “inactive”.

`C[C@H]1CCCCO[C@H](CN(C)S(=O)(=O)c2ccccc2)[C@@H](C)CN([C@@H](C)CO)C(=O)c2cc(NS(=O)(=O)c3ccc(Cl)cc3)ccc2O1`: the cytotoxicity call in the assay on HSkMC and in the assay with HepG2 was “inactive” in each case. Also, in the assay with S. aureus RN4220, the growth inhibition call was “inactive”.

For `Cc1cc(C(=O)Nc2cccc3c2O[C@H](CN(C)S(C)(=O)=O)[C@@H](C)CN([C@@H](C)CO)C3=O)n(C)n1`, the cytotoxicity call in the assay on HSkMC (human skeletal muscle cells) and in the assay on HepG2 was “inactive” each time. Further, the growth inhibition call in the assay on S. aureus RN4220 was “inactive”.
